Data: the supplement of paper PMC3334620
Over roughly 33,000 sequences, “E-score (-0.5 to 0.5)” has its median near -0.043; the highest 2% begin near 0.37. This is one part of the list.

Biological target: T1, Upc2 (UniProt Q12151)
T1 sequence: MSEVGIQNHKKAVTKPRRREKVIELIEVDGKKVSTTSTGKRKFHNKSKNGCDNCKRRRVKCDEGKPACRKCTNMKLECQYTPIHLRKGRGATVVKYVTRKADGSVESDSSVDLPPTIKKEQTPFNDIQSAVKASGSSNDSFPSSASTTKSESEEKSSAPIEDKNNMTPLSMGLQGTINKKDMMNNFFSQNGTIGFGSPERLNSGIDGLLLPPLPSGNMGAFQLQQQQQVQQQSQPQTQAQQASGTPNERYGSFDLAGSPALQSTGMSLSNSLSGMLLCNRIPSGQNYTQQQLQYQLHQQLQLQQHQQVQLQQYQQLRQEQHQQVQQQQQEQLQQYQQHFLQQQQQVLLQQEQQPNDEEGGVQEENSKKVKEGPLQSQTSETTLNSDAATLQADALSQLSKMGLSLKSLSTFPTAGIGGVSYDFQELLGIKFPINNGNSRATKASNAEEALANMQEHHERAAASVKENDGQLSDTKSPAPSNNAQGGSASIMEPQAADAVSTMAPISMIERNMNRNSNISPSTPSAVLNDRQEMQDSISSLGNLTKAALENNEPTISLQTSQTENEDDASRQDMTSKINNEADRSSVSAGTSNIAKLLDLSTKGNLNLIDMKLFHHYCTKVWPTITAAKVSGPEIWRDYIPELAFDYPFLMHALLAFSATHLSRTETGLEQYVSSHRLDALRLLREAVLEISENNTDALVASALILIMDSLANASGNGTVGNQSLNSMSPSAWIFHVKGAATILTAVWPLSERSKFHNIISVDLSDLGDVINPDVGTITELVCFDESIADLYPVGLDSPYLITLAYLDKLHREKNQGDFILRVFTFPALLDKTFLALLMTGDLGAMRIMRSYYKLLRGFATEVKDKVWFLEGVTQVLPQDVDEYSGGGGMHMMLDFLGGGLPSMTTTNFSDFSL
Test: PBM E-score (8-mer binding enrichment) (E-score (-0.5 to 0.5)); higher = stronger / more preferred TF binding; most listed sequences are background and not binding sites
Details: protein concentration: 200 nM; construct: GST-full length
Outline: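 Using PURExpress in vitro transcription/translation, GST-tagged yeast transcription factors were made in full-length or DNA-binding-domain form. These were applied at about 100-200 nM to double-stranded universal all-10-mer Agilent arrays, and bound protein was detected with fluorescent anti-GST. Scans were normalised with masliner before the Universal PBM Analysis Suite assigned E-scores to ungapped eight-base words pooled with their reverse complements.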

Going from GACTTCTA to AGGCAGAC, the “PBM E-score” value falls from -0.0663 to -0.162.

Compared with ACTCGACT, CCTGAACA is higher in “PBM E-score” value: -0.107 for the first, -0.0282 for the second.

Compared with GAGCCCAC, ACGGTGGA is higher in “PBM E-score” value: 0.00447 for the first, 0.227 for the second.

First: CCTAAGTC
Second: AGTGAAAT
The “PBM E-score” value of the first is lower: -0.21 for the first, -0.163 for the second.

Compared with ACCTGCTG, AAGGAAGA is higher in “PBM E-score” value: -0.231 for the first, -0.151 for the second.

Compared with AAACCCGA, AGGCATGC is lower in “PBM E-score” value: 0.248 for the first, -0.0459 for the second.

Going from CCCATGTA to CGCGAGAC, the “PBM E-score” value rises from -0.0824 to 0.196.

First: AGGAGTTC
Second: AACTTCAG
The “PBM E-score” value of the first is lower: -0.126 for the first, -0.0604 for the second.

Going from GGTTGAAA to AAGTGTAC, the “PBM E-score” value rises from -0.142 to 0.163.

Going from GTGATTGA to CGCAAACC, the “PBM E-score” value rises from -0.0994 to 0.205.

Compared with CCATATTA, GAGATAGA is higher in “PBM E-score” value: -0.0504 for the first, 0.1 for the second.

First: TCCATGGA
Second: GGCCTCTA
The “PBM E-score” value of the first is lower: -0.204 for the first, -0.0932 for the second.

Compared with TAGTGTAA, TATGCCCA is lower in “PBM E-score” value: 0.0596 for the first, -0.189 for the second.

Compared with AAATGCAC, ATCAAGTG is lower in “PBM E-score” value: -0.0128 for the first, -0.242 for the second.

Compared with CCTACCTC, GTCGGGAA is higher in “PBM E-score” value: -0.0799 for the first, 0.14 for the second.

First: CCCCCGTA
Second: CTACTGAA
The “PBM E-score” value of the first is higher: 0.279 for the first, -0.126 for the second.

First: TACTTCAA
Second: CGGGCAAG
The “PBM E-score” value of the first is higher: 0.0135 for the first, -0.0843 for the second.

First: CCAAATTC
Second: ATTGTAGG
The “PBM E-score” value of the first is higher: 0.0452 for the first, -0.0292 for the second.

Going from CCCTGGAG to AGGGGACA, the “PBM E-score” value falls from -0.106 to -0.227.

Compared with CTATATTA, ATGACCCA is lower in “PBM E-score” value: -0.0298 for the first, -0.222 for the second.

First: CCCATAGC
Second: CGTTCATC
The “PBM E-score” value of the first is lower: -0.215 for the first, 0.353 for the second.

Compared with ATACGTAC, ATTACAGA is lower in “PBM E-score” value: 0.339 for the first, 0.129 for the second.

Compared with AAGAAGTG, CAACGTAA is higher in “PBM E-score” value: 0.00152 for the first, 0.0631 for the second.

First: ATAATTGC
Second: CGATAAGA
The “PBM E-score” value of the first is lower: -0.037 for the first, 0.0792 for the second.

Going from CGTCTGAG to GGTGGCAA, the “PBM E-score” value falls from 0.0949 to -0.185.

Compared with AGAGTTGG, CAAGGTAC is higher in “PBM E-score” value: -0.241 for the first, 0.135 for the second.

First: CATGTCTC
Second: GAAGGCCA
The “PBM E-score” value of the first is higher: 0.0139 for the first, -0.213 for the second.

First: AATAACAA
Second: CACTACTG
The “PBM E-score” value of the first is higher: -0.0389 for the first, -0.261 for the second.

First: AAGAAAAG
Second: TCGTACAA
The “PBM E-score” value of the first is lower: -0.165 for the first, 0.487 for the second.

Compared with CCAAGCCA, ACTTTGTC is higher in “PBM E-score” value: -0.0835 for the first, 0.0592 for the second.

First: CCAGCTCA
Second: GGGGCGTA
The “PBM E-score” value of the first is lower: -0.202 for the first, 0.171 for the second.

First: CACTACCG
Second: CCGGCTGA
The “PBM E-score” value of the first is lower: -0.186 for the first, -0.123 for the second.

Compared with TCGACACA, ATAGAGTA is lower in “PBM E-score” value: 0.0793 for the first, 0.0723 for the second.

First: GGTGCGAA
Second: ACAAGCCG
The “PBM E-score” value of the first is higher: 0.176 for the first, -0.119 for the second.

Going from GAACACGA to GGTTCAAC, the “PBM E-score” value falls from 0.107 to 0.0526.

First: AAGATAGT
Second: ATTGACCG
The “PBM E-score” value of the first is lower: 0.00824 for the first, 0.113 for the second.

Going from CCCAGATA to ATCTTATA, the “PBM E-score” value rises from -0.189 to 0.194.

Compared with ACCATTCA, ACAGCCGC is higher in “PBM E-score” value: -0.248 for the first, -0.173 for the second.

Going from CAACGCGG to TCCACTAA, the “PBM E-score” value falls from -0.0183 to -0.158.

First: ACTCCTAA
Second: ATAACATA
The “PBM E-score” value of the first is lower: -0.112 for the first, 0.106 for the second.

Compared with ACTGCGTA, CGCCCGAG is lower in “PBM E-score” value: 0.178 for the first, -0.177 for the second.

First: CTGGGTAA
Second: AAGGGCCA
The “PBM E-score” value of the first is higher: -0.00044 for the first, -0.314 for the second.

First: CGCGCAAA
Second: TGGCTACA
The “PBM E-score” value of the first is higher: 0.172 for the first, 0.0472 for the second.

Going from CAAACAAA to AAGGGAGA, the “PBM E-score” value falls from 0.0701 to -0.317.

Compared with CACCTTGC, GCTGCATA is lower in “PBM E-score” value: -0.0616 for the first, -0.173 for the second.

First: GATCATGA
Second: CTCATCAC
The “PBM E-score” value of the first is higher: 0.0871 for the first, -0.118 for the second.

First: AGCTTTCA
Second: ACCCCGAT
The “PBM E-score” value of the first is higher: -0.0969 for the first, -0.219 for the second.

First: AATGGCCA
Second: AGCGTCGA
The “PBM E-score” value of the first is lower: -0.158 for the first, 0.0516 for the second.

Going from CAAACAGC to GGTTGGAC, the “PBM E-score” value falls from -0.0951 to -0.271.

Going from CGACGGTC to AAGTGCTA, the “PBM E-score” value falls from 0.122 to -0.133.

First: AATCCGCA
Second: AAGGTATC
The “PBM E-score” value of the first is higher: -0.152 for the first, -0.158 for the second.

Compared with CTGGCGTA, CTATGGTC is lower in “PBM E-score” value: 0.0921 for the first, -0.0385 for the second.

Compared with AATGTGCT, TCCGGTCA is lower in “PBM E-score” value: 0.00011 for the first, -0.122 for the second.

First: ACGCTTTC
Second: CTGGCATC
The “PBM E-score” value of the first is higher: -0.074 for the first, -0.145 for the second.

Compared with AGGGCCTA, GAAACTAA is higher in “PBM E-score” value: -0.233 for the first, 0.00434 for the second.

First: GCTATGAA
Second: AACACAAT
The “PBM E-score” value of the first is lower: -0.21 for the first, 0.0557 for the second.

Going from ATTGTACG to GTCCAGTA, the “PBM E-score” value falls from 0.428 to -0.11.

First: ATCGGGTG
Second: CTGCCCCA
The “PBM E-score” value of the first is higher: 0.0379 for the first, -0.0538 for the second.

Going from ATACACGC to CAGAGTTC, the “PBM E-score” value falls from 0.147 to -0.117.

Going from CCCGCTAG to CGCCTCAC, the “PBM E-score” value rises from -0.118 to -0.0329.

Going from GCTAAAAC to GAACTTCA, the “PBM E-score” value falls from 0.0226 to -0.187.

Going from GGTGTCAA to AGTGCCGA, the “PBM E-score” value rises from -0.169 to -0.143.

Compared with GAGATAGC, GAATTTCA is higher in “PBM E-score” value: -0.156 for the first, -0.125 for the second.

Compared with CTCATTGC, CCAGGCAC is lower in “PBM E-score” value: -0.0756 for the first, -0.306 for the second.

First: CCCTCTCG
Second: CAACCAAC
The “PBM E-score” value of the first is higher: 0.0379 for the first, -0.166 for the second.

Compared with TTCGGAAA, ATTAGATA is lower in “PBM E-score” value: 0.115 for the first, 0.0616 for the second.

Going from AGCCTCCA to CTAGCCTA, the “PBM E-score” value falls from -0.197 to -0.349.

First: CCTGACGA
Second: CGCCCTTC
The “PBM E-score” value of the first is lower: -0.0951 for the first, -0.0838 for the second.

Compared with AGGACGGG, TAGCGTAA is higher in “PBM E-score” value: -0.202 for the first, 0.199 for the second.

Going from CTCTGCGC to AGTATTGC, the “PBM E-score” value falls from 0.0237 to -0.00103.

Going from GGTACAAC to GCAGTTAA, the “PBM E-score” value rises from -0.0773 to 0.0277.

Compared with TCCTACCA, ATTCCTTG is higher in “PBM E-score” value: -0.268 for the first, -0.12 for the second.

Going from GAAGGAAA to TGAGGGCA, the “PBM E-score” value falls from 0.0226 to -0.0372.

Going from GGGTCAAC to ACATCTAC, the “PBM E-score” value rises from -0.231 to -0.0289.

Going from GGGTTCGA to AGCCGCAC, the “PBM E-score” value falls from -0.0373 to -0.0383.

Compared with AACGTCAG, CATCGTTC is higher in “PBM E-score” value: -0.209 for the first, 0.416 for the second.

Compared with AACGCTGT, AATATCCC is lower in “PBM E-score” value: 0.0242 for the first, -0.0942 for the second.

Compared with ATTAGGGC, CAAATGCG is higher in “PBM E-score” value: -0.313 for the first, 0.053 for the second.

First: ATTGAACC
Second: AGGCTGAT
The “PBM E-score” value of the first is higher: -0.182 for the first, -0.235 for the second.

First: CCAAAAAA
Second: GCTCCCCC
The “PBM E-score” value of the first is higher: -0.0391 for the first, -0.304 for the second.

Compared with GGAGCGAC, CGTTGGGC is lower in “PBM E-score” value: 0.209 for the first, -0.181 for the second.

Going from GAACTCTA to GAACGTAC, the “PBM E-score” value rises from 0.044 to 0.275.

First: ATAACTCA
Second: CTCTTTAA
The “PBM E-score” value of the first is higher: -0.0317 for the first, -0.0799 for the second.

Going from ACTCTTGA to GGGCATAA, the “PBM E-score” value rises from -0.136 to -0.0918.

Going from TCAATTAA to CATACGTA, the “PBM E-score” value rises from 0.0463 to 0.315.

Going from GTGATCTA to ACCACATA, the “PBM E-score” value rises from 0.00386 to 0.0955.
